Source: the supplement of paper PMC4967469

Tests used:
Assay in all cases: Viability of human cancer cell lines after 72 h of drug (GDSC screen)
XMD8-92 = compound: CCOc1cc(N2CCC(O)CC2)ccc1Nc1ncc2c(n1)N(C)c1ccccc1C(=O)N2C [XMD8-92]; conditions: top dose 10 µM; top dose inferred
Protocol: (§1)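 Human cancer cell lines in 384-well plates, medium with 10% serum, drug for 72 h over a 256-fold dose range (nine 2-fold or five 4-fold steps up to the top dose). Adherent lines were fixed and stained with the nucleic acid dye Syto60, suspension lines read with resazurin; signal relative to control wells, capped at 0 and 100%. One two-parameter sigmoid per drug and line, fitted in a mixed model over all curves with the slope shared within a line.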

ACHP (KIN001-260) = compound: N#Cc1c(C2CCNCC2)cc(-c2c(O)cccc2OCC2CC2)nc1N [ACHP (KIN001-260)]; conditions: top dose 20 µM; top dose inferred
Protocol: as §1

CAY10603 = compound: CC(C)(C)OC(=O)Nc1ccc(-c2cc(C(=O)NCCCCCCC(=O)NO)no2)cc1 [CAY10603]; conditions: top dose 20 µM; top dose inferred
Protocol: as §1

CH5424802 = compound: CCc1cc2c(cc1N1CCC(N3CCOCC3)CC1)C(C)(C)c1[nH]c3cc(C#N)ccc3c1C2=O [CH5424802]; conditions: top dose 5.12 µM; top dose inferred
Protocol: as §1

Row | Cell Line | AUC (XMD8-92) | pIC50 (XMD8-92) | AUC (ACHP (KIN001-260)) | pIC50 (ACHP (KIN001-260)) | AUC (CAY10603) | pIC50 (CAY10603) | AUC (CH5424802) | pIC50 (CH5424802)
1 | IST-MEL1 (melanoma, adherent) | 0.935 | < 5.00 | 0.865 | < 4.70 | 0.492 | 5.93 | 0.978 | < 5.29
2 | IST-MES1 (mesothelioma, adherent) | 0.779 | 5.39 | 0.968 | < 4.70 | 0.587 | 5.66 | 0.986 | < 5.29
3 | JEG-3 (urogenital system, adherent) | 0.981 | < 5.00 | 0.991 | < 4.70 | 0.935 | < 4.70 | 0.991 | < 5.29
4 | JHH-1 (liver, adherent) | 0.843 | 5.10 | 0.968 | < 4.70 | 0.249 | 6.66 | 0.981 | < 5.29
5 | JHOS-2 (ovary, adherent) | 0.867 | < 5.00 | 0.958 | < 4.70 | 0.605 | 5.59 | 0.959 | < 5.29
6 | JHOS-3 (ovary, adherent) | 0.962 | < 5.00 | 0.979 | < 4.70 | 0.884 | < 4.70 | 0.957 | < 5.29
7 | JHU-022 (head and neck, adherent) | 0.806 | 5.17 | 0.96 | < 4.70 | 0.958 | < 4.70 | 0.978 | < 5.29
8 | JIMT-1 (breast, adherent) | 0.883 | < 5.00 | 0.983 | < 4.70 | 0.7 | 5.32 | 0.982 | < 5.29
9 | JJN-3 (haematopoietic neoplasm, suspension) | 0.869 | 5.19 | 0.876 | 4.86 | 0.376 | 6.22 | 0.993 | < 5.29
10 | JURL-MK1 (chronic myeloid leukaemia, suspension) | 0.985 | < 5.00 | 0.786 | 5.07 | 0.425 | 6.11 | 0.972 | < 5.29
11 | K2 (melanoma, adherent) | 0.861 | < 5.00 | 0.939 | < 4.70 | 0.819 | 4.80 | 0.981 | < 5.29
12 | K5 (thyroid, adherent) | 0.855 | 5.13 | 0.984 | < 4.70 | 0.574 | 5.70 | 0.98 | < 5.29
13 | KCL-22 (chronic myeloid leukaemia, suspension) | 0.908 | 5.00 | 0.907 | 4.71 | 0.352 | 6.28 | 0.988 | < 5.29
14 | KGN (ovary, adherent) | 0.851 | < 5.00 | 0.954 | < 4.70 | 0.394 | 6.22 | 0.973 | < 5.29
15 | KINGS-1 (glioma, adherent) | 0.969 | < 5.00 | 0.968 | < 4.70 | 0.468 | 6.00 | 0.979 | < 5.29
16 | KM12 (large intestine, adherent) | 0.964 | < 5.00 | 0.937 | < 4.70 | 0.592 | 5.64 | 0.943 | < 5.29
17 | KMH-2 (thyroid, adherent) | 0.861 | 5.15 | 0.99 | < 4.70 | 0.684 | 5.42 | 0.989 | < 5.29
18 | KMRC-20 (kidney, adherent) | 0.964 | < 5.00 | 0.989 | < 4.70 | 0.809 | 4.97 | 0.987 | < 5.29
19 | KNS-42 (glioma, adherent) | 0.912 | < 5.00 | 0.959 | < 4.70 | 0.59 | 5.64 | 0.984 | < 5.29
20 | KP-N-YN (neuroblastoma, adherent) | 0.794 | 5.29 | 0.983 | < 4.70 | 0.532 | 5.81 | 0.98 | < 5.29
21 | KU-19-19 (bladder, adherent) | 0.795 | 5.33 | 0.987 | < 4.70 | 0.604 | 5.62 | 0.987 | < 5.29
22 | KURAMOCHI (ovary, adherent) | 0.885 | < 5.00 | 0.977 | < 4.70 | 0.656 | 5.44 | 0.981 | < 5.29
23 | KYAE-1 (oesophagus, suspension) | 0.869 | < 5.00 | 0.949 | < 4.70 | 0.55 | 5.76 | 0.926 | < 5.29
24 | KYSE-50 (oesophagus, adherent) | 0.924 | < 5.00 | 0.966 | < 4.70 | 0.671 | 5.45 | 0.727 | 5.88
25 | KYSE-140 (oesophagus, adherent) | 0.952 | < 5.00 | 0.946 | < 4.70 | 0.984 | < 4.70 | 0.957 | < 5.29
26 | KYSE-150 (oesophagus, adherent) | 0.983 | < 5.00 | 0.982 | < 4.70 | 0.806 | 5.01 | 0.989 | < 5.29
27 | KYSE-220 (oesophagus, adherent) | 0.976 | < 5.00 | 0.985 | < 4.70 | 0.682 | 5.38 | 0.977 | < 5.29
28 | KYSE-410 (oesophagus, adherent) | 0.809 | 5.25 | 0.985 | < 4.70 | 0.786 | 5.03 | 0.985 | < 5.29
29 | KYSE-450 (oesophagus, adherent) | 0.942 | < 5.00 | 0.901 | < 4.70 | 0.697 | 5.37 | 0.932 | < 5.29
30 | L-428 (Hodgkin lymphoma, suspension) | 0.945 | < 5.00 | 0.955 | < 4.70 | 0.991 | < 4.70 | 0.992 | < 5.29

pIC50: −log10 of the molar value. IC50 is the fitted dose that halves viability relative to control wells, and lower means more sensitive; a fit beyond the top or the lowest dose is shown as a bound at that dose. AUC is the area under the same curve over the 256-fold range up to the top dose, as a fraction: 1 means no effect, lower means more sensitive. Any top dose called inferred comes from the curve model; the source does not state it.
